From PubChem BioAssay AID1963576 (National Center for Advancing Translational Sciences (NCATS), 2024)
In all, about 46,000 compounds went through this assay and about 60 (0.1%) were called active. Another 3% or so got no clear call; they are omitted. Calls come from the whole dose curve; as a rule, active = well fitted inhibition curve with a large enough effect; inconclusive = small, poorly fitted or top-dose-only effect; inactive = no such curve, though single readings can be large or run the other way. The list shows a part of the results.

assay: Primary qHTS assay for Inhibitors of ovarian cancer metastasis using an organotypic tumor microenvironment (TME) model.; note: nearly all actives have a fitted effect of over 65% in size;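 for activity change, negative = inhibition: plate controls were DMSO wells for no effect and tomatine positive control wells for full effect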; conditions: SKOV3ip1-GFP adhesion/invasion on 3D omental model, fluorescence; series mostly up to 45.8 µM; activity change, negative = inhibition: at the top concentration
Procedure, shortened: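 A 3D layer of primary human omental fibroblasts, mesothelial cells, fibronectin and collagen I, grown 48 hr, received SKOV3ip1-GFP cells in serum-free medium plus compounds at 0.36-46 umol/L. After 2 hr RT and 16 hr 37 C, fixed adherent GFP cells were counted; normalized to DMSO and tomatine.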

Activity change, negative = inhibition, inactive:
CCn1cc(C(=O)N2CCN(c3cccc(Cl)c3)CC2)c(=O)c2cc(S(=O)(=O)N3CCCCC3)ccc21 -5.37%
O=C(NCc1ccccc1Cl)C(=O)NCC(c1cccs1)S(=O)(=O)c1cccs1 (stereo unspecified) -25.6%
CCCSCCCNC(=O)C1CCN(c2nn3cc(-c4ccc(F)cc4)nc3s2)CC1 -5.97%
Cc1ccc2nc(-c3ccc(O)cc3)c(Nc3ccc4c(c3)OCCO4)n2c1 -10.8%
CC(C)Cn1c(=O)c2ccccc2n2c(CCC(=O)N3CCN(c4ccccc4F)CC3)nnc12 3.35%
CCOC(=O)c1c(C)oc2ncnc(Nc3ccc(OCC)cc3)c12 6.09%
Cc1ccc(C)c(N2C(=O)N(Cc3cc(=O)n4ccccc4n3)c3ccccc3S2(=O)=O)c1 -12%
COc1cccc(C(=O)c2sc3nc(-c4ccccc4)cc(C(F)(F)F)c3c2N)c1 -20.3%
Cc1ccc(C)n1-c1nnc(N2CCCC(C(=O)Nc3ccc(C(C)C)cc3)C2)s1 (stereo unspecified) -20.5%
N#Cc1ccccc1NC(=O)Cn1cnc2onc(-c3cccc(F)c3)c2c1=O -10.1%
Cn1ccc2cc(S(=O)(=O)N3CCC(C(=O)NCCc4ccccc4)CC3)ccc21 1.32%
CCCCOc1ccc(C(=O)Nc2ccc(-c3nc4ccccc4s3)cc2C)cc1 -3.65%
COc1cc(C)ccc1OCCSc1nc2ccc(NC(=O)c3ccc(F)cc3)cc2s1 2.02%
O=C(COc1ccccc1F)Nc1ccc(-c2nc3ccccc3s2)cc1 -5.58%
CCc1cccc(NC(=O)Nc2csc3c2CCCC3)c1 -13.1%
Cc1ccc(C)c(S(=O)(=O)c2cn(Cc3ccccc3)c3cc(F)c(F)cc3c2=O)c1 -4.36%
CNC(=O)c1ccc2c(c1)N=C(C)c1cc(C)ccc1S2 -4.61%
CC1CCN(c2oc(-c3cccs3)nc2S(=O)(=O)c2ccc(Cl)cc2)CC1 -1.02%
Cc1ccc(CNC(=O)c2ccc(-n3c(C)cc4c3CCCC4)cc2)cc1 -7.81%
COc1ccc2oc(-c3ccc(C)c(NC(=O)c4cccnc4)c3)nc2c1 0.492%
O=C(Cn1cc(SCc2cccc(F)c2)c2ccccc21)N1CCOCC1 -4.22%
CCCC(=O)OC1=CN(Cc2ccccc2)S(=O)(=O)c2ccccc21 0.568%
Cc1cccc(CSc2cn(CC(=O)N3CCCCC3)c3ccccc23)c1 -17.2%
Cc1cc(C)c2sc(N(Cc3cccnc3)C(=O)CCS(=O)(=O)c3ccccc3)nc2c1 -26.4%
CCOC(=O)c1c(SCC(=O)Nc2nc3ccc(C)cc3s2)nc(=O)[nH]c1C 3.06%
CN(C)C(=N)N=C(N)N -12.9%
COC(=O)CSc1nc2c(cnn2-c2ccc(F)cc2)c(=O)[nH]1 2.7%
CCOC(=O)c1cnc2ccc(C)cc2c1Nc1ccc(OCc2ccccc2Cl)cc1 12.7%
CC(=O)N1c2ccc(S(=O)(=O)N3CCN(c4ccc(C)cc4C)CC3)cc2CC1C (stereo unspecified) 2.91%
CCOc1ccc(N(c2nc(-c3ccc(OC)c(OC)c3)no2)c2nc(-c3ccc(OC)c(OC)c3)no2)cc1 -12.8%
CC(C)CNC(=O)CCSc1nc(-c2ccc3c(c2)OCO3)cc(C(F)(F)F)n1 14.1%
Cc1oc(-c2cccc(Br)c2)nc1CN1CCC(C(=O)NCCc2ccc(Cl)cc2)CC1 -7.19%
CC(C)[C@H](N)C(=O)OCCOCn1cnc2c(=O)[nH]c(N)nc21 3.09%
Cc1ccc(C)c(N2CCN(c3ccc(NC(=O)c4cccs4)cc3C(=O)O)CC2)c1 12.6%
O=C(Cn1c(=O)n(Cc2nc(-c3ccccc3)no2)c(=O)c2cc3c(cc21)OCO3)Nc1ccc(Cl)cc1 11.9%
CN(C)c1ccc(NC(=O)CCSc2nc(-c3ccco3)cc(C(F)(F)F)n2)cc1 -10.7%
CCCCN(C)S(=O)(=O)c1cc(-c2nnc3c4ccccc4c(C)nn23)ccc1C -1.9%
COc1cccc(OC)c1-c1cc(C(=O)NC2(C(=O)O)C3CC4CC(C3)CC2C4)nn1-c1ccnc2cc(Cl)ccc12 (stereo unspecified) 12.7%
CCc1ccc(-n2nc(C)c3c(C)cc(=O)n(CC(=O)Nc4ccc(C)c(F)c4)c32)cc1 10.8%
Cn1c(=O)n(C)c2cc(NS(=O)(=O)c3ccc(Br)cc3)c(NCc3ccccc3)cc21 5.89%
CCN(CC)CCCNC(=O)c1c(C)oc2ncn(CC(C)C)c(=O)c12 -7.69%
NC(=O)c1ncn([C@@H]2O[C@H](CO)[C@@H](O)[C@@H]2O)n1 -12%
CCOc1ccc(-n2c(=O)c3c(C)c(C)sc3n(CC(=O)c3ccccc3)c2=O)cc1 -3.11%
CC1CCc2c(sc(NC(=O)CCCOc3ccc(C(C)(C)C)cc3)c2C(N)=O)C1 (stereo unspecified) 0.627%
COc1cc(Br)c(C2CC(=O)Nc3cc(OC)c(OC)c(OC)c32)cc1OC (stereo unspecified) -2.46%

outcome, inactive:
CCCn1c(-c2ccc(S(=O)(=O)N3CCOCC3)cc2)csc1=Nc1ccc(OCC)cc1
COC(=O)c1ccccc1NC(=O)Cn1c(=O)n(Cc2ccc(C(=O)NCc3ccc4c(c3)OCO4)cc2)c(=O)c2ccccc21
COc1cccc(NC(=O)CNC(=O)Cn2c(C)cc3ccccc3c2=O)c1
Cc1ccc(N(CC(=O)NCCc2ccccc2)S(=O)(=O)N(C)C)cc1
Cc1ccc(CNC(=O)c2ccc3c(c2)nc(C)n3-c2cc(C)cc(C)c2)cc1
O=C(CN1C(=O)CCc2cc(S(=O)(=O)N3CCOCC3)ccc21)NCc1ccc(F)cc1
O=C(CSc1nc2cc(C(=O)NC3CCCC3)ccc2c(=O)n1CC1CCCO1)c1ccc(F)cc1 (stereo unspecified)
Cc1ccc(OCC(=O)Nc2ccc3nc(SCC(=O)N4CCCC4)sc3c2)cc1
COc1cc(OC)c(NC(=O)CSc2nccn2C)cc1Cl
CCC(=O)N1N=C(c2ccc(OC)cc2)CC1c1cn(-c2ccccc2)nc1-c1cccs1 (stereo unspecified)
O=C(c1cc(-c2ccc(Br)cc2)n[nH]1)N1CCN(S(=O)(=O)c2ccc(Br)cc2)CC1
COc1ccccc1N(CC(=O)NCCSCc1ccccc1Cl)S(C)(=O)=O
O=C(Cn1ccn(-c2ccc(F)cc2)c(=O)c1=O)NCCc1ccccc1
CCc1ccccc1NC(=O)Cn1ncc2c(C)n(Cc3ccccc3F)c(C)c2c1=O
CCOc1ccccc1NC(=O)C(CC(C)C)NS(=O)(=O)c1ccc2c(c1)CCN2C(C)=O (stereo unspecified)
CCc1ccc(NC(=O)CC2C(=O)OCCN2CC)cc1 (stereo unspecified)
